# Laboratory results taken from the supplement of paper PMC8728848.
# This is one part of the list.
# B1: Ficolin A (Rattus norvegicus), Q9WTS8 (protein)
# chain: MWWPMLWAFPVLLCLCSSQALGQESGACPDVKIVGLGAQDKVAVIQSCPSFPGPPGPKGEPGSPAGRGERGLQGSPGKMGPPGSKGEPGTMGPPGVKGEKGERGTASPLGQKELGDALCRRGPRSCKDLLTRGIFLTGWYTIYLPDCRPLTVLCDMDVDGGGWTVFQRRVDGSINFYRDWDSYKRGFGNLGTEFWLGNDYLHLLTANGNQELRVDLREFQGQTSFAKYSSFQVSGEQEKYKLTLGQFLEGTAGDSLTKHNNMAFSTHDQDNDTNGGKNCAALFHGAWWYHDCHQSNLNGRYLPGSHESYADGINWLSGRGHRYSYKVAEMKIRAS
# What was measured:
# Test in all cases: glycan array binding signal (z-score within array); higher = stronger binding
# Details in all cases: glycan notation: IUPAC condensed, linker removed
# [1] = biological target: Fuc(a1-3)[Gal(b1-4)]GlcNAc(b1-2)Man(a1-6)[Gal(b1-4)GlcNAc(b1-2)Man(a1-3)]Man(b1-4)GlcNAc(b1-4)GlcNAc
# How it was run: (§1)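 Negative Z-scores can be read as non-binding. The Z-score is calculated within each array and then averaged across arrays of one protein sequence at different concentrations or buffers and across linkers. Arrays, 3228 in all, were curated from the Consortium for Functional Glycomics database and kept only where the protein sequence was available.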
# [2] = biological target: Fuc(a1-3)[Gal(b1-4)]GlcNAc(b1-3)Gal(b1-3)[Fuc(a1-4)]GlcNAc
# How it was run: as §1
# [3] = biological target: Fuc(a1-3)[Gal(b1-4)]GlcNAc(b1-4)Gal(b1-4)[Fuc(a1-3)]GlcNAc
# How it was run: as §1
# [4] = biological target: Fuc(a1-3)[Gal(b1-4)]GlcNAc(b1-4)Gal(b1-4)[Fuc(a1-3)]GlcNAc(b1-4)Gal(b1-4)[Fuc(a1-3)]GlcNAc
# How it was run: as §1
# [5] = biological target: Fuc(a1-3)[Gal(b1-4)]GlcNAc6S
# How it was run: as §1
# [6] = biological target: Fuc(a1-3)[Gal3S(b1-4)]Glc6S
# How it was run: as §1
# [7] = biological target: Fuc(a1-3)[Gal3S(b1-4)]GlcNAc
# How it was run: as §1
# [8] = biological target: Fuc(a1-3)[Gal3S(b1-4)]GlcNAc6S
# How it was run: as §1
# [9] = biological target: Fuc(a1-3)[GalNAc(b1-4)]GlcNAc
# How it was run: as §1
# [10] = biological target: Fuc(a1-4)GlcNAc
# How it was run: as §1
# [11] = biological target: Fuc(b1-3)GlcNAc
# How it was run: as §1
# [12] = biological target: Gal(a1-2)Gal
# How it was run: as §1
# [13] = biological target: Gal(a1-3)Gal
# How it was run: as §1
# [14] = biological target: Gal(a1-3)Gal(b1-3)GlcNAc
# How it was run: as §1
# [15] = biological target: Gal(a1-3)Gal(b1-4)Glc
# How it was run: as §1
# [16] = biological target: Gal(a1-3)Gal(b1-4)GlcNAc
# How it was run: as §1
# [17] = biological target: Gal(a1-3)Gal(b1-4)[Fuc(a1-3)]GlcNAc
# How it was run: as §1
# [18] = biological target: Gal(a1-3)GalNAc
# How it was run: as §1
# [19] = biological target: Gal(a1-3)[Gal(a1-4)]Gal(b1-4)GlcNAc
# How it was run: as §1
# [20] = biological target: Gal(a1-4)Gal(b1-4)Glc
# How it was run: as §1
# [21] = biological target: Gal(a1-4)Gal(b1-4)GlcNAc
# How it was run: as §1
# [22] = biological target: Gal(a1-4)GlcNAc
# How it was run: as §1
# [23] = biological target: Gal(a1-6)Glc
# How it was run: as §1
# [24] = biological target: Gal(b1-2)Gal
# How it was run: as §1
# [25] = biological target: Gal(b1-3)Gal
# How it was run: as §1
# [26] = biological target: Gal(b1-3)Gal(b1-4)GlcNAc
# How it was run: as §1
# [27] = biological target: Gal(b1-3)GalNAc
# How it was run: as §1
# [28] = biological target: Gal(b1-3)GalNAc(b1-3)Gal(a1-4)Gal(b1-4)Glc
# How it was run: as §1
# [29] = biological target: Gal(b1-3)GalNAc(b1-4)Gal(b1-4)Glc
# How it was run: as §1
# [30] = biological target: Gal(b1-3)GalNAc(b1-4)[Neu5Ac(a2-3)]Gal(b1-4)Glc
# How it was run: as §1
# [31] = biological target: Gal(b1-3)GlcNAc
# How it was run: as §1
# [32] = biological target: Gal(b1-3)GlcNAc(b1-2)Man(a1-3)[Gal(b1-3)GlcNAc(b1-2)Man(a1-6)]Man(b1-4)GlcNAc(b1-4)GlcNAc
# How it was run: as §1
# [33] = biological target: Gal(b1-3)GlcNAc(b1-3)Gal(b1-3)GlcNAc
# How it was run: as §1
# [34] = biological target: Gal(b1-3)GlcNAc(b1-3)Gal(b1-4)Glc
# How it was run: as §1
# [35] = biological target: Gal(b1-3)GlcNAc(b1-3)Gal(b1-4)GlcNAc
# How it was run: as §1
# [36] = biological target: Gal(b1-3)[Fuc(a1-4)]GlcNAc
# How it was run: as §1
# [37] = biological target: Gal(b1-3)[Fuc(a1-4)]GlcNAc(b1-3)Gal(b1-3)[Fuc(a1-4)]GlcNAc
# How it was run: as §1
# [38] = biological target: Gal(b1-3)[Fuc(a1-4)]GlcNAc(b1-3)Gal(b1-4)GlcNAc
# How it was run: as §1
binder,measurement,setting,value
B1,glycan array binding signal (z-score),[1],-0.091
same,glycan array binding signal (z-score),[2],-0.092
same,glycan array binding signal (z-score),[3],-0.105
same,glycan array binding signal (z-score),[4],-0.05
same,glycan array binding signal (z-score),[5],-0.043
same,glycan array binding signal (z-score),[6],-0.093
same,glycan array binding signal (z-score),[7],-0.043
same,glycan array binding signal (z-score),[8],-0.107
same,glycan array binding signal (z-score),[9],-0.106
same,glycan array binding signal (z-score),[10],-0.098
same,glycan array binding signal (z-score),[11],-0.058
same,glycan array binding signal (z-score),[12],-0.077
same,glycan array binding signal (z-score),[13],-0.039
same,glycan array binding signal (z-score),[14],-0.094
same,glycan array binding signal (z-score),[15],-0.071
same,glycan array binding signal (z-score),[16],-0.059
same,glycan array binding signal (z-score),[17],-0.105
same,glycan array binding signal (z-score),[18],-0.094
same,glycan array binding signal (z-score),[19],-0.082
same,glycan array binding signal (z-score),[20],-0.092
same,glycan array binding signal (z-score),[21],-0.084
same,glycan array binding signal (z-score),[22],-0.12
same,glycan array binding signal (z-score),[23],-0.065
same,glycan array binding signal (z-score),[24],-0.012
same,glycan array binding signal (z-score),[25],-0.09
same,glycan array binding signal (z-score),[26],-0.034
same,glycan array binding signal (z-score),[27],-0.063
same,glycan array binding signal (z-score),[28],-0.1
same,glycan array binding signal (z-score),[29],-0.049
same,glycan array binding signal (z-score),[30],-0.075
same,glycan array binding signal (z-score),[31],-0.008
same,glycan array binding signal (z-score),[32],-0.109
same,glycan array binding signal (z-score),[33],-0.083
same,glycan array binding signal (z-score),[34],-0.058
same,glycan array binding signal (z-score),[35],-0.064
same,glycan array binding signal (z-score),[36],-0.069
same,glycan array binding signal (z-score),[37],-0.085
same,glycan array binding signal (z-score),[38],-0.073
